Experimental data taken from article PMC4336329 (PLoS ONE, 2015).
The campaign covered roughly 310,000 compounds. About 2,200 (0.71%) showed an effect of 50% or more. The effect is printed as a negative number. The list shows a part of the results.

The molecules below were run against human ether-à-go-go-related gene (hERG) potassium channel (human, UniProt Q12809) (assay: primary screen, population patch clamp on CHO cells stably expressing hERG).
human ether-à-go-go-related gene (hERG) potassium channel, sequence (Q12809 whole entry, looked up): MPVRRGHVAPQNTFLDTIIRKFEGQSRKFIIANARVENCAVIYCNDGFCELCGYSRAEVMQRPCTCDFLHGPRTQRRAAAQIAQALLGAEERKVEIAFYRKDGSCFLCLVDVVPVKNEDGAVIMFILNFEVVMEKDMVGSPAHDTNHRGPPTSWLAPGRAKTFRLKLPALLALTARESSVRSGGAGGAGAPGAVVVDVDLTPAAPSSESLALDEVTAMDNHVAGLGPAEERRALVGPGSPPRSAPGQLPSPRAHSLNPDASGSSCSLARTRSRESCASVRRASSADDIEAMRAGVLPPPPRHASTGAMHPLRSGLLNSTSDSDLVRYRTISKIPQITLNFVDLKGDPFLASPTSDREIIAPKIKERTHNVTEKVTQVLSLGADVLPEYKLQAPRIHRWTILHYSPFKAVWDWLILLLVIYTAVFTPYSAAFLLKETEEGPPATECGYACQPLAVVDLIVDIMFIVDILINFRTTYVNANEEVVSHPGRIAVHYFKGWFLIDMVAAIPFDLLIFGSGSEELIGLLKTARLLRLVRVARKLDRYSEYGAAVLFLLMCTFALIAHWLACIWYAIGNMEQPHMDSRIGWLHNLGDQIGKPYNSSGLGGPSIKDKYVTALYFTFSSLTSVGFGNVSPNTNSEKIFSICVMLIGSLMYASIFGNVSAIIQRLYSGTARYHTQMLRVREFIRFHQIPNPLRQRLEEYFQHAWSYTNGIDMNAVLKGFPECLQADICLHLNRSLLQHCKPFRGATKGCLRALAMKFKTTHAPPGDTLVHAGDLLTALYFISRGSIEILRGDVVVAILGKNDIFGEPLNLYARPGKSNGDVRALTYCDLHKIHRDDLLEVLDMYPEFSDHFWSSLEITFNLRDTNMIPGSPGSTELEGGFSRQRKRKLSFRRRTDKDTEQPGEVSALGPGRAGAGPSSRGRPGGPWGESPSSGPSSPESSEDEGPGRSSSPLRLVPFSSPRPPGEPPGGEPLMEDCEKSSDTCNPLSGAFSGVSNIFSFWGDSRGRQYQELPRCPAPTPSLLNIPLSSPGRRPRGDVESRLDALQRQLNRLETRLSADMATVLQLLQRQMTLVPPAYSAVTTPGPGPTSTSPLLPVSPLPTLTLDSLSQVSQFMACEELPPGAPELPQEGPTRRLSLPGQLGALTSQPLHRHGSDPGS

Compound	hERG current change (%, negative = inhibition) at 1uM [%]
CCOC(=O)N1CCN(C/C(C)=C/c2ccccc2)CC1	1.78
COc1ccc(N=C2SCCCN2C)cc1.I	15.8
CCN1CCN(CCOc2cccc(Cl)c2Cl)CC1.O=C(O)C(=O)O	12.8
COc1ccc2c(c1OC)C(=O)N(c1ccc(C)c(C)c1)C2=O	9.78
CC1CCC(C(=O)NC(C(=O)NCCc2ccc(S(N)(=O)=O)cc2)C(C)C)CC1 (centres unmarked)	0.0462
Cc1nc(C(=O)N2CCCC(C(=O)c3ccc(Cl)cc3)C2)cs1 (centres unmarked)	10.3
Cc1cccc(-n2c(C)cc(/C=N\NC(=O)c3cccs3)c2C)c1	7.17
COc1ccc(-c2nc(N)nc(C(F)(F)F)c2-c2ccccc2OC)c(O)c1	0.588
CCN(CC)C(=O)CCCOc1ccc(Cl)cc1Cl	5.56
O=C(CN1C(=O)NC2(CCOc3ccccc32)C1=O)Nc1ccc(Br)cc1F (centres unmarked)	7.3
COc1ccccc1CNC(=O)C1CCN(S(=O)(=O)c2cccc([N+](=O)[O-])c2)CC1	-3.01
Cc1[nH]n2cnnc2c(=O)c1Br.O=S(=O)(O)O	6.34
CC(=O)c1cccc(NC(=O)c2cc(Cl)sc2Cl)c1	12.7
O=C(Nc1ccc(NC(=O)c2cccs2)cc1)c1ccco1	7.46
COc1ccc(CNC(=O)CN2CCN(S(=O)(=O)c3cccs3)CC2)cc1OC	7.36
CN1CCCC(C(=O)C(C#N)c2ccccc2)C1 (centres unmarked)	11.1
COc1ccc(S(=O)(=O)N2CCN(C(=O)c3ccc(NC(C)=O)cc3)CC2)cc1	11.2
O=C(c1ccc2c(c1)OCO2)N(c1ccc(Br)cc1)C1C=CS(=O)(=O)C1 (centres unmarked)	3.92
COCCN1CN(S(=O)(=O)c2cccc(Cl)c2)c2nc3ccccc3nc21	7.6
Oc1cc(O)cc(/C=C/c2ccc(O)cc2O)c1	7.9
Cc1cccc(CC(=O)OCn2nnc3ccccc3c2=O)c1	-6.38
CCN1CCCC1CNC(=O)CN1C(=O)COc2ccc(C)cc21 (centres unmarked)	-0.512
COCC(=O)Nc1cc(Cl)c(OC)cc1OC	6.45
Cc1ccc(C(=O)C2CCOC(C)(C)C2)cc1 (centres unmarked)	7.21
CS(=O)(=O)N1N=C(c2ccc(Cl)cc2)CC1c1cccs1 (centres unmarked)	-2.58
Cc1nnc(N2C(=O)C(O)=C(C(=O)c3ccco3)C2c2ccc(F)cc2)s1 (centres unmarked)	13.9
